Data on 77 molecules can be found in article PMC12040169 (PLOS Biology, 2025).

The other results are listed elsewhere or left out.

The test has as its system T1, C. trachomatis L2/434/Bu expressing GFP (CTL2-GFP).
T1 construct: L2/434/Bu GFP intracellular growth in HeLa cells
Further details: species or system HeLa; C. trachomatis total inclusion area by high-content imaging, normalised to DMSO. As to conditions: total inclusion area; 28.5 h, 10 µM; inhibitor. An outline of the steps:
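Post-fluorescence-read fixation, DNA staining with Hoechst and high-content imaging; GFP inclusion area and number per well, and nuclei counts, used as proxies for bacterial growth and host viability.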
As for `CSCCCN1CCn2nc(CNc3cnccn3)cc2C1` [CBK307136], the “% of control remaining” value is recorded as 113.492. `CCC(CN1CCCC1)NC(=O)Cc1ccc(OC)c(C)c1` (centres unmarked) [CBK282752]: the “% of control remaining” value is given as 49.3597. On to `CN1CCN(CCCNC(=O)N2CCN(c3ccc(F)cc3)CC2)CC1` [CBK156386], for which the “% of control remaining” value is given as 96.49.

On to `Cc1ncsc1C(=O)N1CCCC(c2cc3cnccc3[nH]2)C1` (centres unmarked) [CBK283461], for which the “% of control remaining” value is 100.522. On to `COc1cc(/C=N/NC(=O)CC#N)ccc1OCc1ccccc1Cl` [CBK263932], for which the “% of control remaining” value turned out to be 106.457. For the molecule `Cc1cc(C)n(CCCC(=O)N2CCc3ncc(Cl)cc3C2)n1` [CBK284852], the “% of control remaining” value is 77.7434.

On to `Cc1cc(C)n(CC2CCCN2C(=O)CCCc2ccccn2)n1` (centres unmarked) [CBK305920], for which the “% of control remaining” value was determined as 121.049. With `O=C(O)C(Cc1c[nH]c2ccccc12)N1Cc2ccccc2C1=O` (centres unmarked) [CBK287056] the figure was 88.9516.

With `O=C(CSc1nnc(-c2ccccc2)n1C1CCCCC1)Nc1ccc(Cl)cc1Cl` [CBK267424], the “% of control remaining” value was 97.1435.

Turning to `CC(C)C(=O)NC(NC(=S)Nc1sc2c(c1C(N)=O)CCCC2)C(Cl)(Cl)Cl` (centres unmarked) [CBK261050], the “% of control remaining” value came out at 86.7316.

As for `CC(=O)NCCSc1cncc(NC(C)C)n1` [CBK105291], the “% of control remaining” value was determined as 99.0983.

Regarding `O=C(O)CCC(C(=O)O)N1C(=O)/C(=C\C(Cl)=C/c2ccc([N+](=O)[O-])cc2)SC1=S` (centres unmarked) [CBK261011], the “% of control remaining” value is 103.495. Turning to `O=C(CN(c1cccc(Cl)c1)S(=O)(=O)c1ccc(Cl)cc1)NCc1ccco1` [CBK265356], the “% of control remaining” value is on record as 97.0114. The same measure for `COc1ccc([C@@]23CC[C@@H](NC(=O)Nc4ccnc5ccccc45)C[C@@H]2N(C)CC3)cc1OC` [CBK045699]: 100.591. In the case of `CC(=O)NCCN(Cc1ccc(S(=O)(=O)N2CCOC2=O)cc1)Cc1ccoc1` [CBK024460], the “% of control remaining” value is on record as 93.6918. For the molecule `CCOC(=O)c1ccc(NC(=S)NC(=O)c2ccc(C)c(C)c2)cc1` [CBK264004], the “% of control remaining” value is 107.441.

Consider `Cc1csc2c(C3CCN(C(=O)c4ccncc4)CC3)nc(C)n12` [CBK285243], for which the “% of control remaining” value is on record as 74.2635. Turning to `O=C(NCCCOc1ccccc1)N1CCN(S(=O)(=O)c2ccc(C(F)(F)F)cc2)CC1` [CBK296686], the “% of control remaining” value worked out at 69.593. Take `Cc1c(S(=O)(=O)NC(C)CCCC(C)(C)O)sc2ccc(Cl)cc12` (centres unmarked) [CBK062467]: the “% of control remaining” value came to 88.4748. `Cc1cc(Cl)ccc1OCC(=O)NC(=S)Nc1cccc(-c2nc3ccccc3s2)c1` [CBK264802]: the “% of control remaining” value came to 116.426. Regarding `CN1CCC(C(=O)NC(=O)NC2CCCCC2)CC1` [CBK034825], the “% of control remaining” value is listed as 82.389. On to `CC(=O)c1ccc(-c2cc(N3CCN(C(=O)c4ccco4)CC3)ncn2)s1` [CBK036999], for which the “% of control remaining” value stood at 101.016. For `O=C(NC(=O)C1CCNCC1)Nc1ccc(F)cc1F` [CBK034793], the “% of control remaining” value worked out at 78.39. As to `COc1ccc(CN2C(=O)CC3(C2=O)C(=O)N(Cc2ccccc2)c2ccc(F)cc23)cc1OC` (centres unmarked) [CBK075174], the “% of control remaining” value is on record as 97.4084. As to `COC(=O)Cc1c(O)nn(C)c1Cc1cccc(C(F)(F)F)c1` [CBK006608], the “% of control remaining” value stood at 88.8958. On to `COc1cc(OC)cc(C(=O)N2CCC3(CC2)CC(=O)c2ccc(OCCN(C)C)cc2O3)c1` [CBK169008T], for which the “% of control remaining” value was 47.7157. The same measure for `O=C(Nc1ccc(OCc2ccccc2)cc1)OCC1CN(Cc2ccccc2)CCO1` (centres unmarked) [CBK074792]: 88.5277; for `COc1ccccc1C1CCCN1Cc1c(C)nc2ccccn12` (centres unmarked) [CBK281995]: 96.6753; for `COc1cccc2c3c([nH]c12)C1(CCCN(C/C=C\c2ccccc2)C1)NCC3` (centres unmarked) [CBK040138]: 57.6548. With `CCc1cccc2c(C=C3C(=O)N(CC(=O)O)C(=O)c4ccccc43)c[nH]c12` [CBK295153] the figure was 100.565; with `CC(C)(C)C(=O)N1CCC(c2nnc3n2CCCCC3)CC1` [CBK285311], 69.5635; with `CN(C)CCN(Cc1cc2cc3c(cc2[nH]c1=O)OCO3)C(=S)Nc1ccc(F)cc1` [CBK135186], 86.2668.

On to `O=C(Nc1cccc(Cl)c1)Nc1ccccc1NC(=O)Nc1cccc(Cl)c1` [CBK267624], for which the “% of control remaining” value is 96.9216. For the molecule `C/C(CCS(=O)(=O)c1ccc(Br)cc1)=N\NC(N)=S` [CBK261370], the “% of control remaining” value was found to be 70.5781. In the case of `CC(C)C[C@H]1NC(=O)C2(C/C=C/C[C@@H]3COCC[C@@H]3NC1=O)CCN(C(=O)[C@@H](N)Cc1c[nH]c3ccccc13)CC2` [CBK292200], the “% of control remaining” value came out at 99.6175. Take `CCOC(=O)N1CCN(CCCCc2ccc(F)cc2)CC1` [CBK025002C]: the “% of control remaining” value is 66.5987. Consider `Cc1ccc(OCc2nc(C#N)c(NCCCN3CCOCC3)o2)cc1` [CBK266423], for which the “% of control remaining” value is on record as 100.525. Regarding `O=C(Nc1cc(Cl)ccc1Cl)c1ncn[nH]1` [CBK028834], the “% of control remaining” value came out at 49.6811. Consider `FC(F)(F)c1cc(-c2cn3ccnc3c(NCCc3cccnc3)n2)cc(C(F)(F)F)c1` [CBK066146], for which the “% of control remaining” value stood at 100.153. The same measure for `O=C(O)Cc1ccc(NC(=O)CN2C(=O)c3ccccc3C2=O)cc1` [CBK268562]: 128.952; for `CCCCNC(=O)NC(=O)C1CCN(CCCOc2ccccc2)CC1` [CBK035198]: 60.7186; for `Cc1ccc(-n2c(SCC(=O)Nc3ccc(C)c([N+](=O)[O-])c3)nnc2-c2ccccc2O)c(C)c1` [CBK268769]: 52.5225.

As for `O=C(NC1Cc2ccccc2C1)c1cncnc1` [CBK200262], the “% of control remaining” value was 92.5286.

With `COc1ccc(N2CCN(CC(=O)N3c4ccccc4Sc4ccccc43)CC2)cc1` [CBK269398], the “% of control remaining” value was found to be 96.4471. The same measure for `NC(=O)c1cc([N+](=O)[O-])ccc1NCCN1C(=O)c2ccc(C(=O)O)cc2C1=O` [CBK264444]: 108.385. Turning to `Cn1c(=O)[nH]c(=O)c2c1nc(CN1CCOCC1)n2Cc1ccc(F)cc1` [CBK270040], the “% of control remaining” value is listed as 89.059.

Regarding `CC(C)c1noc([C@@H]2C[C@H](NS(=O)(=O)c3ccc(F)cc3)CN2C)n1` [CBK288864], the “% of control remaining” value is 103.252. Regarding `CC(C)(C)C1CCc2c(sc(NC(=O)CCC(=O)O)c2C(=O)Nc2ccccc2C(F)(F)F)C1` (centres unmarked) [CBK264143], the “% of control remaining” value is listed as 126.094.

For `CCN(CCc1nc2cc(OC)ccc2[nH]1)C(=O)c1ccc(=O)n(C)n1` [CBK307712], the “% of control remaining” value was 95.2004. As to `Cc1c(CNCCN2CCN(C)CC2c2ccccc2)cnn1C` (centres unmarked) [CBK304056], the “% of control remaining” value is given as 50.9611. The same measure for `O=C(OCc1ccccc1)N1CCC(C2OCc3cc(-c4ccc(C(=O)N5CCCC5)cc4)ccc3O2)CC1` (centres unmarked) [CBK153260]: 31.9439; for `Cc1ccc(Nc2cc(-c3cc4ccccc4o3)ncn2)cc1NS(C)(=O)=O` [CBK091148]: 53.8246. Consider `Cc1nnc(N2CCn3nc(C(O)Cc4ccccc4)cc3C2)s1` (centres unmarked) [CBK307152], for which the “% of control remaining” value is given as 82.0063.

In the case of `Cc1cc(SCC2=NNC(=O)C2)c(Cl)cc1Cl` [CBK067769], the “% of control remaining” value is given as 95.3756. As to `Oc1ccc(SCCCCCN2CCCCC2)cc1` [CBK261488], the “% of control remaining” value is reported as 81.5406. The same measure for `COc1ccccc1-c1nc(SCc2ccc(C(=O)O)cc2)n[nH]1` [CBK266631]: 118.446. Turning to `CCN(CCO)C(=O)c1cccc(-c2cnn(C(F)F)c2C)c1` [CBK307519], the “% of control remaining” value is given as 43.8718. Turning to `NC(=O)C1(Cc2ccccc2-c2cccc(F)c2)CCN(C(=O)c2cccc(F)c2)CC1` [CBK285693], the “% of control remaining” value is given as 105.131. With `Cc1cccc(CCNC(=O)CC2CCN(C(=O)CC3CCCCC3)CC2)c1` [CBK285964] the figure was 92.9354; with `O=c1c(C(F)(F)F)cccn1Cc1ccccc1` [CBK023620], 109.136; with `CCCOC1CCCN(C(=O)c2cncc(F)c2)C1` (centres unmarked) [CBK304623], 44.8683. For `COc1ccc2oc(C(=O)NC(C)c3cn(C)nc3C)cc2c1` (centres unmarked) [CBK281573], the “% of control remaining” value was determined as 92.9862. For the molecule `O=C(c1ccc2c(c1)C(=O)N(N1C(=O)c3ccccc3C1=O)C2=O)c1ccc2c(c1)C(=O)N(N1C(=O)c3ccccc3C1=O)C2=O` [CBK261182], the “% of control remaining” value was 93.0895. In the case of `COCCN(C)c1nc2c(c(=O)[nH]1)Cc1ccccc1OC2` [CBK306737], the “% of control remaining” value is listed as 40.4172.

Regarding `COc1cc(-c2nc(NC(=O)C(C)C)cc3ccccc23)cc(OC)c1OC` [CBK085741], the “% of control remaining” value is listed as 80.9292. With `Cn1nc(C(C)(C)C)c2cc(C(=O)N3CCn4nccc43)cnc21` [CBK305466] the figure was 47.0737; with `COc1ccc(C(=O)C(C)OC(=O)c2ccc3ccccc3n2)cc1` (centres unmarked) [CBK111937], 100.969; with `O=C(NCCNC(=O)c1ccccn1)c1cccc(F)c1` [CBK269613], 101.056.

For the molecule `CNC(=O)C1(Cc2ccccc2-c2cccs2)CCN(C(=O)c2cccc(OC)c2)CC1` [CBK285907], the “% of control remaining” value was determined as 109.921. The same measure for `CCSc1nc(N)c(NC(=O)c2ccco2)c(=O)[nH]1` [CBK287613]: 83.8281; for `Cc1ccccc1C(=O)N1CCN(Cc2cc(=O)n3ccsc3n2)CC1` [CBK304595]: 59.1333.

As for `Cc1ccc(N(CC(O)CNC23CC4CC(CC(C4)C2)C3)S(=O)(=O)c2ccccc2)cc1` (centres unmarked) [CBK264741], the “% of control remaining” value is listed as 88.4188. On to `O=C(CC(CN1CCN(Cc2ccccn2)CC1)C(=O)O)Nc1ccc(F)cc1` (centres unmarked) [CBK286800], for which the “% of control remaining” value came out at 94.0922. Turning to `NC(=O)CC1C=CS(=O)(=O)C1` (centres unmarked) [CBK019653], the “% of control remaining” value is on record as 62.9674.

Consider `O=c1[nH]ccn2nc(-c3ccc4c(c3)OCO4)cc12` [CBK288048], for which the “% of control remaining” value was found to be 87.106. Consider `Cc1ccc(-c2cc(C(=O)N3CCN(C4CCS(=O)(=O)C4)CC3)c3ccccc3n2)cc1` (centres unmarked) [CBK297153], for which the “% of control remaining” value was determined as 72.9573. On to `COc1ccc(S(=O)(=O)N2CCN(C(=O)c3ccco3)CC2)c2ccccc12` [CBK269839], for which the “% of control remaining” value is recorded as 100.11.
